Measurements published in PubChem BioAssay AID686979 (National Center for Advancing Translational Sciences (NCATS), 2013).
The whole screen tested about 420,000 compounds, of which about 50,000 (12%) were called active. Inconclusive means that the source gave no clear call. Such entries were picked first, then a sample of the others. Calls follow the shape of the dose curve; as a rule, active = well fitted inhibition curve with a large enough effect; inconclusive = small, poorly fitted or top-dose-only effect; inactive = flat fitted curve, though single readings scatter. No potency is given beside an inconclusive call; the fits are too rough.
% is scaled to controls: 0 for no effect and ±100 for the full control effect; potency is read from the fitted curve at half-maximal effect; tags tell the direction and shape of the fitted curve.

Assay: qHTS for Inhibitors of human tyrosyl-DNA phosphodiesterase 1 (TDP1): qHTS in cells in presence of CPT; also: nearly all actives have a fitted effect of over 55% in size
Conditions: chicken DT40 Tdp1-/-;hTDP1 cells + 20 nM CPT, ATP luminescence, 48 h; activity change, negative = growth inhibition: at 46.2 µM (top of the series) unless noted
How it was run: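 Chicken DT40 Tdp1-/- cells complemented with human TDP1, 400 cells/well, exposed to compounds plus 20 nM camptothecin for at least 48 h at 37 C; viability read as ATP content by CellTiter-Glo luminescence.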
For `Cc1cccc(OCCSCc2nc3ccccc3[nH]2)c1`, the Potency was active: 16.4 µM.
For `O=S(=O)(c1ccc(Br)cc1)c1nc(-c2ccccc2)oc1NCc1cccnc1`, the Potency was inconclusive [inhibitor, partial curve].
With `Cc1cc(C)cc(N2CN=C3SCC(=O)N3C2)c1` the Potency was inconclusive [inhibitor, single point].
With `CC1CC(C)CN(C(=O)/C=C/c2ccc(S(=O)(=O)N3CCOCC3)cc2)C1` (configuration not stated) the Potency was inconclusive [inhibitor, single point].
With `COc1ccc(NC(=S)Nc2ccc3c(c2)c(=O)n(C)n3-c2ccccc2)cc1` the Potency was inconclusive [inhibitor, single point].
With `N#Cc1c(N)nc2c(c1-c1cccnc1)CCCCC2` the Potency was inconclusive [inhibitor, single point].
In the case of `Cc1cccc(Nc2nccc(N(C)C)c2C#N)c1`, the “activity change, negative = growth inhibition” value was inactive: 3.41%.
For `O=S(=O)(c1ccc(Br)cc1)N1CCN(c2cc(-c3ccccc3)nc3ncnn23)CC1`, the Potency was active: 13 µM.
For `O=C(O)c1cc(Nc2cc(Cl)c3nonc3c2[N+](=O)[O-])ccc1O`, the Potency was inconclusive [inhibitor, single point].
In the case of `CCOc1ccc2nc(N(CCCN(C)C)C(=O)c3ccc(C(=O)c4ccccc4)cc3)sc2c1`, the Potency was inconclusive [inhibitor, single point].
For `Cc1ccc(-n2cc(-c3ccccc3)c3c(NC4CCCC4)ncnc32)cc1`, the Potency was inconclusive [inhibitor, single point].
In the case of `COc1ccc(N2CCN(C(=O)c3cccn4c(=O)c5ccccc5nc34)CC2)cc1`, the “activity change, negative = growth inhibition” value was inactive: -21.4%.
With `CC(=O)Oc1ccc(NC(=O)CSc2ccccc2)cc1` the Potency was inconclusive [inhibitor, partial curve].
In the case of `CC(C)(C)n1cnc2cc(NC(=O)c3ccc(Cl)cc3)ccc21`, the Potency was inconclusive [inhibitor, single point].
With `COc1cc2c(=O)c(S(=O)(=O)c3ccc(F)cc3)cn(Cc3ccccc3C)c2cc1OC` the Potency was active: 16.4 µM.
For `O=C(c1ccc(NS(=O)(=O)c2ccc3[nH]c(=O)[nH]c3c2)cc1)N1CCCCC1`, the “activity change, negative = growth inhibition” value was inactive: 5.76%.
In the case of `O=C(NCc1cccs1)C(=O)c1cn(CC(=O)N2CCCC2)c2ccccc12`, the “activity change, negative = growth inhibition” value was inactive: -27.4%.
In the case of `CCOc1cc(/C=N\Nc2ccc([N+](=O)[O-])cc2)ccc1OCC(=O)Nc1ccc(C)c(C)c1`, the Potency was active: 23.1 µM.
In the case of `COc1ccc(N2CCN(C(=O)CNC(=O)c3nn(-c4ccc(OC)cc4)c(=O)c4ccccc34)CC2)cc1`, the Potency was inconclusive [inhibitor, single point].
In the case of `NC(CSC1(c2ccc(Cl)cc2)c2ccccc2-c2ccccc21)C(=O)O` (configuration not stated), the Potency was inconclusive [inhibitor, single point].
In the case of `O=[N+]([O-])c1ccc(COc2ccc(CN3CCCCC3)cc2)cc1`, the Potency was inconclusive [inhibitor, single point].
For `Cn1c(=O)cnc2cnc(Nc3ccccc3)nc21`, the Potency was inconclusive [inhibitor, single point].
For `Cc1ccc(S(=O)(=O)Nc2cccc3c2O[C@H](CN(C)C(=O)Nc2cccc4ccccc24)[C@H](C)CN([C@H](C)CO)C3=O)cc1`, the Potency was active: 20.6 µM.
For `COc1ccc(S(=O)(=O)N2CCN(C(=O)c3ccco3)CC2)cc1OC`, the activity change, negative = growth inhibition was inconclusive: -22.1% [inhibitor].
With `CSCc1c(C(=O)OCC(=O)NC2CCCCC2)oc2ccccc12` the Potency was inconclusive [inhibitor, single point].
For `CC(C)Cn1nc(C(=O)NCc2ccccc2CN2CCCC2)c2ccccc2c1=O`, the Potency was inconclusive [inhibitor, partial curve].
In the case of `CO[C@H]1CN(C)C(=O)c2cc(NC(=O)c3ccccc3)ccc2OC[C@H](C)NC[C@@H]1C`, the “activity change, negative = growth inhibition” value was inactive: -15.5%.
With `c1ccc2c(C(c3nnnn3-c3ccc4c(c3)OCCO4)N3CCCCC3)ccnc2c1` (configuration not stated) the Potency was inconclusive [inhibitor, single point].
With `O=C(CN1C(=O)NC2(CCCC2)C1=O)Nc1ccc(F)c(Cl)c1` the “activity change, negative = growth inhibition” value was inactive: 15.9%.
With `CCOC(=O)[C@]12CCCC=C1N(Cc1cccc3ccccc13)C(=O)[C@H](CC(=O)NCc1cccc(C(F)(F)F)c1)C2` the Potency was inconclusive [inhibitor, single point].
For `O=C(c1ccccc1)c1cccc(C(=O)c2ccccc2)c1`, the “activity change, negative = growth inhibition” value was inactive: 0.412%.
With `O=C(CCCCCN1C(=O)[C@@H]2Cc3ccccc3CN2C1=O)Nc1cccc(F)c1` the Potency was inconclusive [inhibitor, single point].
With `COc1ccc(Cl)cc1NS(=O)(=O)c1cc(-c2cc(C)no2)ccc1C` the Potency was active: 6.51 µM.
With `Cc1ccc(-c2csc3ncnc(Sc4nnnn4-c4ccccc4)c23)cc1` the Potency was active: 7.08 µM.
For `CC(NC(=O)Cn1ncc2c3ccccc3n(Cc3ccc(F)cc3)c2c1=O)c1ccccc1` (configuration not stated), the Potency was inconclusive [inhibitor, single point].
For `COc1ccc(C2c3[nH]c4ccccc4c3C[C@H]3C(=O)N(C4CCN(Cc5ccccc5)CC4)CC(=O)N23)c(OC)c1` (some centres not stated), the Potency was inconclusive [inhibitor, single point].
With `Cc1cc(F)cc(-c2cc(C(=O)NCc3ccccc3)[nH]n2)c1` the Potency was inconclusive [inhibitor, single point].
In the case of `CCOC(=O)c1ccc(NC(=O)C2Cc3ccccc3CN2S(=O)(=O)c2ccc(Cl)cc2)cc1` (configuration not stated), the Potency was inconclusive [inhibitor, single point].
With `CCN(CC(=O)N1CCN(Cc2ccccc2)CC1)S(=O)(=O)c1ccc(C)cc1` the Potency was inconclusive [inhibitor, partial curve, poor fit].
For `COc1cccc(/C=N/NC(=S)Nc2cccc(S(=O)(=O)N(C)C)c2)c1`, the Potency was active: 4.11 µM.
In the case of `COc1ccccc1CCC(=O)Nc1cccc(S(=O)(=O)N2CCCC2)c1`, the Potency was inconclusive [inhibitor, single point].
With `COc1ccc(C(=O)NCCc2cn3ccc(C)cc3n2)cc1` the Potency was inconclusive [inhibitor, single point].
